Results as given in US20130066055A1 (Bayer, published 2013).

T1: C4.4a receptor (complete), on transfected A549 cells (UniProt O95274 31-326, limits assumed)
T1 sequence (looked up): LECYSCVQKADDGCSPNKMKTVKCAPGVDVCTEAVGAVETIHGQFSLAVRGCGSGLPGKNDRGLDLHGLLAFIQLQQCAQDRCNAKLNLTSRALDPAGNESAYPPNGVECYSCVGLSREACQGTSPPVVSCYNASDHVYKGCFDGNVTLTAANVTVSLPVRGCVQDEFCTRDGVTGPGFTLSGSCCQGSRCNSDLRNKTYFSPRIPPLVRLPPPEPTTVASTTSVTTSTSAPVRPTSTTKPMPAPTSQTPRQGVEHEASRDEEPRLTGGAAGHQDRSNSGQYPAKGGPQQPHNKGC


Target: T1, C4.4a receptor (complete), on …
Assay: cell-based or functional assay

Binder | IC50 [nM] A549: C4.4a
ADC of Example 119 (anti-C4.4a B01-3) (antibody, human IgG1, lambda, linker-toxophore on Cys (S)) light: ESVLTQPPSVSGAPGQRVTISCTGSSSNIGAGYVVHWYQQLPGTAPKLLIYDNNKRPSGVPDRFSGSKSGTSASLAISGLRSEDEADYYCAAWDDRLNGPVFGGGTKLTVLGQPKAAPSVTLFPPSSEELQANKATLVCLISDFYPGAVTVAWKADSSPVKAGVETTTPSKQSNNKYAASSYLSLTPEQWKSHRSYSCQVTHEGSTVEKTVAPTECS heavy: EVQLLESGGGLVQPGGSLRLSCAASGFTFSNAWMSWVRQAPGKGLEWVSYISSSGSTIYYADSVKGRFTISRDNSKNTLYLQMNSLRAEDTAVYYCAREGLWAFDYWGQGTLVTVSS[in this place human IgG1 constant region] | 0.32 nM
ADC of Example 120 (anti-C4.4a B01-3) (antibody, human IgG1, lambda, linker-toxophore on Lys (NH)) light: ESVLTQPPSVSGAPGQRVTISCTGSSSNIGAGYVVHWYQQLPGTAPKLLIYDNNKRPSGVPDRFSGSKSGTSASLAISGLRSEDEADYYCAAWDDRLNGPVFGGGTKLTVLGQPKAAPSVTLFPPSSEELQANKATLVCLISDFYPGAVTVAWKADSSPVKAGVETTTPSKQSNNKYAASSYLSLTPEQWKSHRSYSCQVTHEGSTVEKTVAPTECS heavy: EVQLLESGGGLVQPGGSLRLSCAASGFTFSNAWMSWVRQAPGKGLEWVSYISSSGSTIYYADSVKGRFTISRDNSKNTLYLQMNSLRAEDTAVYYCAREGLWAFDYWGQGTLVTVSS[in this place human IgG1 constant region] | 0.07 nM
